Measurements as given in PubChem BioAssay AID686979 (National Center for Advancing Translational Sciences (NCATS), 2013).
“And” between values parts separate entries of the source, which are not always exact repeats. Identical values can stand only once. Among all 420,000 compounds or so, about 50,000 (12%) were called active. Inconclusive means that the source gave no clear call. Such entries were picked first, then a sample of the others. The call rests on the fitted dose curve; in most records, active means well fitted inhibition curve with a large enough effect; inconclusive means small, poorly fitted or top-dose-only effect; inactive means flat fitted curve, though single readings scatter. A potency beside an inconclusive call is a rough fit, not a confirmed value. The source holds several records for some structures; these can differ, active in one and inactive in another.

Experiment: qHTS for Inhibitors of human tyrosyl-DNA phosphodiesterase 1 (TDP1): qHTS in cells in presence of CPT; further: nearly all actives have a fitted effect of over 55% in size
Conditions: chicken DT40 Tdp1-/-;hTDP1 cells + 20 nM CPT, ATP luminescence, 48 h; series mostly up to 46.2 µM
Summary of the method: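 Cell growth measured by CellTiter-Glo luminescence after a minimum 48 h, 37 C compound exposure with 20 nM CPT in Tdp1-knockout DT40 cells stably expressing hTDP1, seeded 400/well; qHTS titration format.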
Potency means the concentration at half of the fitted maximal effect; tags describe the fitted curve by direction and shape.

SMILES	Potency
CCn1c(C(=O)N2CCc3ccccc3C2)cc2sccc21	inconclusive: 20.6 µM [inhibitor, single point]
CCCCN(CCCC)CCNC(=O)CN1C(=O)CSc2ccc(S(=O)(=O)N3CCOCC3)cc21	inconclusive: 18.4 µM [inhibitor, single point] and inconclusive: 16.4 µM [inhibitor, partial curve, poor fit]
Cc1ccc(CN(C(=O)C(F)(F)F)C(C(=O)NC2CCCCC2)c2ccco2)cc1 (stereo not given)	inconclusive: 29.1 µM [inhibitor, single point]
O=C(NCCN1C(=O)S/C(=C\c2ccc(OC(F)F)cc2)C1=O)c1cnccn1	active: 1.84 µM
CCc1ccc(NC(=O)CN2CCc3ccccc3C2)cc1	inconclusive: 29.1 µM [inhibitor, single point]
CC(Nc1cc(N2CCN(C(=O)C(C)(C)C)CC2)ccc1[N+](=O)[O-])c1ccccc1 (stereo not given)	inconclusive: 29.1 µM [inhibitor, single point]
O=C(Nc1ccc2c(c1)CCC2)c1ccc(Cl)nc1	inconclusive: 13 µM [inhibitor, partial curve]
CC1(C(=O)NCC2CCCCC2)CCN1CCc1ccccc1 (stereo not given)	inconclusive: 29.1 µM [inhibitor, single point]
Cc1cc(=O)oc2c1ccc1ccccc12	inactive
CC[C@@H](C)[C@H](CNC)NC[C@@H](Cc1cccc2ccccc12)NCCc1cccc(C(F)(F)F)c1	active: 23.1 µM
OCCN(Cc1ccccn1)Cc1ccccn1	inconclusive: 10.3 µM [inhibitor, partial curve]
O=C(CSc1nncc(=O)[nH]1)NCc1ccccc1	active: 20.6 µM
COc1ccc(C(CNC(=O)c2cccc(Br)c2)N2CCCC2)cc1 (stereo not given)	inconclusive: 20.6 µM [inhibitor, partial curve]
COc1cccc(NS(=O)(=O)c2c(C)cc(C)cc2C)c1	inconclusive: 18.4 µM [inhibitor, partial curve, poor fit]
OCCNCCCOc1cc(Cl)ccc1Cl	inconclusive: 20.6 µM [inhibitor, single point]
CCCOc1ccc(CNC(=O)c2ccc(C)c(-n3c(C)nc4cccnc43)c2)cc1	inconclusive: 29.1 µM [inhibitor, single point]
Cc1ccc(-n2nnnc2-c2cnn(-c3ccc(F)cc3)c2C(F)(F)F)cc1	active: 13 µM
CCc1ccc(OCC(=O)N2CCN=C2c2ccccc2)cc1	inactive
CC(C)COc1ccc(Cc2cnc(N)nc2N)cc1	inconclusive: 29.1 µM [inhibitor, single point]
Cc1c(C(=O)NCc2cccc(C(F)(F)F)c2)sc(=O)n1Cc1ccc(S(=O)(=O)N(C)C)cc1	active: 20.6 µM
COc1cccc(CNC(=O)c2ccc3c(=O)n4nc(Nc5ccccc5)sc4nc3c2)c1	active: 8.2 µM
CCOC(=O)c1c(C)n(-c2ccccc2)c2ccc(OC(=O)c3cccc(C)c3)cc12	inconclusive: 18.4 µM [inhibitor, single point]
CC(=O)c1cccc(NC(=O)Nc2nnc(N3CCCC3)s2)c1	inconclusive: 4.11 µM [inhibitor, full curve]
CC(=O)c1cc(-c2ccc(F)cc2)n(CC(=O)NC2CCC(C)CC2)c1C (stereo not given)	inconclusive: 29.1 µM [inhibitor, single point]

SMILES	Potency
Cc1noc(C)c1C(=O)OC(C)C(=O)Nc1ccc([N+](=O)[O-])cc1C(F)(F)F (stereo not given)	inactive
c1ccc2c(CCNc3ncnc4nc[nH]c34)cccc2c1	active: 23.1 µM
CC1=C(C(=O)N2CCCCCC2)CC(CC(=O)NCC2CCCCC2)C(=O)N1Cc1ccc(F)cc1 (stereo not given)	active: 23.1 µM
Cc1ccccc1NC(=O)Cc1nc(COC(=O)c2ccc(Cl)c(S(N)(=O)=O)c2)cs1	inconclusive: 13 µM [inhibitor, partial curve]
O=C(c1cc(COc2ccc(F)cc2Cl)on1)N1CC[C@@H]2CCCC[C@H]2C1	inconclusive: 29.1 µM [inhibitor, single point]
Cc1cccc(NC(=O)Cn2nc3c4ccccc4n(Cc4ccccc4)cc-3c2=O)c1	inconclusive: 23.1 µM [inhibitor, single point]
Cc1nn(Cc2ccc(F)cc2)c(C)c1NC(=O)c1cc2ncc(Br)cn2n1	inconclusive: 25.9 µM [inhibitor, single point]
CCc1ccc(Nc2nnc(SCC(=O)Nc3cccc(S(=O)(=O)NC4=NCCCCC4)c3)s2)cc1	inconclusive: 20.6 µM [inhibitor, single point]
CC(=O)N1CCN(c2ccc(S(=O)(=O)N3CCOCC3)cc2[N+](=O)[O-])CC1	inactive
CCCCNC(=S)NNC(=O)c1cccnc1	inactive
O=C(Nc1cccc(C(F)(F)F)c1)N1CC2CCCN2c2ccccc21 (stereo not given)	inconclusive: 23.1 µM [inhibitor, single point]
COCCNC(=O)/C(C#N)=C1\N=C(N)c2ccccc21	inconclusive: 20.6 µM [inhibitor, partial curve]
COc1ccc2nc(C)cc(Nc3cccc(C(=O)O)c3)c2c1	inactive
O=C(Nc1ccc(S(=O)(=O)N2CCOCC2)cc1)c1ccc([N+](=O)[O-])o1	active: 1.03 µM
COc1ccc(C(=O)Nc2cccc(S(=O)(=O)N3CCCC3)c2)cc1S(=O)(=O)N1CCOCC1	inconclusive: 18.4 µM [inhibitor, partial curve]
Cc1cccc2sc(N(CCCN(C)C)C(=O)CCS(=O)(=O)c3ccccc3)nc12	active: 1.84 µM
Cc1ccc([N+](=O)[O-])cc1S(=O)(=O)Nc1cccc(-c2ccc(N3CCCC3)nn2)c1	inconclusive: 29.1 µM [inhibitor, single point]
Nc1ccc(N=Nc2ccccc2)c(N)n1	active: 9.44 µM
COc1cc(OC)c(N(C)C(=O)c2cn(C3CCCC3)c(=O)c3c2c2ccccc2n3C)cc1Cl	active: 10.3 µM
Cc1ccc(-n2c(CNC(=O)c3cccs3)nnc2SCC(=O)NO)cc1	inactive
Cc1ccc(N2CC(C(=O)Nc3nnc(SCC(=O)NCC4CCCO4)s3)CC2=O)cc1C (stereo not given)	inactive
Cc1cc(C)n2nc(SCC(=O)N/N=C/c3cccc(Br)c3)nc2n1	inconclusive: 23.1 µM [inhibitor, partial curve, poor fit]
CN(C)S(=O)(=O)c1ccc(C(=O)NCc2cccs2)cc1	inactive
CN(Cc1ccccc1)S(=O)(=O)c1ccc2[nH]c3c(c2c1)CCCCC3	inconclusive: 29.1 µM [inhibitor, single point]

SMILES	Potency
Cc1ccc(N2CCN(C(=O)c3cnn(-c4ccc(F)cc4F)c3C3CCN(C(=O)OC(C)(C)C)CC3)CC2)c(C)c1	active: 16.4 µM
CCN(CC)S(=O)(=O)c1ccc(NC(=S)Nc2ccccc2)cc1	inconclusive: 9.2 µM [inhibitor, partial curve, poor fit]
COc1ccc(C)cc1NC(=O)C1CCN(S(=O)(=O)c2ccc3c(c2)C(C)(C)C(=O)N3C)CC1	inconclusive: 20.6 µM [inhibitor, single point]
COC(=O)c1ccccc1-c1ccc(/C=N/Nc2nc(N3CCCC3)nc(N3CCCC3)n2)o1	inconclusive: 20.6 µM [inhibitor, partial curve, poor fit]
CC(=O)c1ccc(Nc2ccc([N+](=O)[O-])c3nonc23)cc1	inconclusive: 9.2 µM [inhibitor, partial curve, poor fit]
COc1ccc(-c2ccc(OC)c(OC)c2OC)c(OC)c1OC	inconclusive: 14.6 µM [inhibitor, partial curve]
Cc1cc(C)cc(N(CC(=O)NCC2CCCO2)C(=O)CCC(=O)Nc2nccs2)c1 (stereo not given)	inactive
COc1cccc(C(NC(C)=O)c2nc(-c3ccncc3)cs2)c1 (stereo not given)	inactive
O=C(Nc1nc2cc3c(cc2s1)OCO3)C1CC1	active: 4.11 µM
Nn1c(Cc2cccc3ccccc23)nnc1SCc1c(F)cccc1Cl	inconclusive: 23.1 µM [inhibitor, single point]
Cc1ccc2c(c1)c1c(c(=O)n(-c3ccccc3)c(=O)n1CC(=O)c1ccc(F)cc1)n2C	inactive
Nc1cc(S(=O)(=O)c2ccc(N3CCCCC3)c(N)c2)ccc1N1CCCCC1	active: 9.2 µM
Cc1ccc(Cl)cc1N1CCN(C(=O)c2noc(C)c2[N+](=O)[O-])CC1	inconclusive: 29.1 µM [inhibitor, single point]
CC(Oc1ccc(-c2ccccc2)cc1)C(=O)N1CCOCC1 (stereo not given)	inconclusive: 29.1 µM [inhibitor, single point]
CC(=O)c1cccc(NC(=O)c2cc(-c3ccco3)on2)c1	inactive
c1ccc(CCCNCCCn2cnc3c(OCc4ccccc4)ncnc32)cc1	active: 10.3 µM
CCOc1ccc(CNC(=O)CC(C)n2nc(C)cc2C)cc1OC (stereo not given)	inactive
CN1CCN(C(=S)SCC(=O)N2CCCc3ccccc32)CC1	inactive
COc1ccc2[nH]cc(CCNc3ncnc4ccc(-c5cccc(C#N)c5)cc34)c2c1	active: 20.6 µM
COC(=O)c1cccc(C23CC4(C2)[C@H](CN(C)[C@@H]4c2ccccc2)C3c2ccccc2)c1 (stereo not given in full)	active: 20.6 µM
N#Cc1cc(N)ccc1Sc1ccc(Cl)cc1	inconclusive: 14.6 µM [inhibitor, partial curve]
Cc1ccc(NC(=O)c2ccc(CN3CC(=O)N4CCCCC4C3=O)cc2)cc1 (stereo not given)	inconclusive: 23.1 µM [inhibitor, single point]
